This is one part of the list. Most values come without repeats; read them as rough.
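Note: cell number obtained by counting DAPI-stained nuclei in high-throughput microscope images with image analysis software, screen run in 1,536-well plates.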

The subject of the test is UACC257. As to the kind of experiment: cell count relative to DMSO control; melanoma cells; higher = more viable cells. Particulars: library dose: low library concentration; 72 h.
`Nc1ncn([C@H]2C[C@H](O)[C@@H](CO)O2)c(=O)n1` [decitabine] + c1cc(-c2cnn3cc(-c4ccc(OCCN5CCCCC5)cc4)cnc23)ccn1 [Dorsomorphin] (first compound 0.1 µM, partner dose 0.4 µM) yielded a cell count of 123%.
For the compound `Nc1ncn([C@H]2C[C@H](O)[C@@H](CO)O2)c(=O)n1` [decitabine] + O=C(Nc1ccccc1)c1cc([N+](=O)[O-])ccc1Cl [GW9662] (first compound 0.1 µM, partner dose 2 µM), the cell count came to 89.7%.
In the case of `Nc1ncn([C@H]2C[C@H](O)[C@@H](CO)O2)c(=O)n1` [decitabine] + O=C(Nc1cccc(Cl)c1)Nc1ncc(CCNc2ncnc3ccsc23)s1 [SNS314] (first compound 0.1 µM, partner dose 0.0008 µM), the cell count came out at 87.1%.
Under `CC(=O)O[C@@]12CO[C@@H]1C[C@H](O)[C@@]1(C)C(=O)[C@H](O)C3=C(C)[C@@H](OC(=O)[C@H](O)[C@@H](NC(=O)OC(C)(C)C)c4ccccc4)C[C@@](O)([C@@H](OC(=O)c4ccccc4)[C@H]21)C3(C)C` [Docetaxel] + Cn1cncc1[C@@](N)(c1ccc(Cl)cc1)c1ccc2c(c1)c(-c1cccc(Cl)c1)cc(=O)n2C [tipifarnib] (first compound 0.0001 µM, partner dose 0.01 µM) stands 39.8%.
For the compound `Nc1nc(F)nc2c1ncn2[C@@H]1O[C@H](CO)[C@@H](O)[C@@H]1O` [fludarabine] + CC1(C)NC(=O)N(c2ccc([N+](=O)[O-])c(C(F)(F)F)c2)C1=O [nilutamide] (first compound 0.2 µM, partner dose 1 µM), the cell count was 85.7%.
On to `Nc1ncn([C@H]2C[C@H](O)[C@@H](CO)O2)c(=O)n1` [decitabine] + O=C(CCCCCCC(=O)Nc1ccccc1)NO [vorinostat] (first compound 0.1 µM, partner dose 0.08 µM), for which the cell count stood at 84%.
In the case of `CC(=O)c1c(C)c2cnc(Nc3ccc(N4CCNCC4)cn3)nc2n(C2CCCC2)c1=O` [palbociclib] + COc1ccc(-c2ccc3c(N4CCOCC4)nc(N4C[C@@H](C)O[C@@H](C)C4)nc3n2)cc1CO [KU0063794] (first compound 0.04 µM, partner dose 0.02 µM), the cell count was 87.3%.
`Nc1nc(F)nc2c1ncn2[C@@H]1O[C@H](CO)[C@@H](O)[C@@H]1O` [fludarabine] + O=C(O)C(=O)Nc1sc2c(c1C(=O)O)CCNC2 [TCS401] (first compound 0.2 µM, partner dose 1.66667 µM) came in with a cell count of 85.6%.
Under `Nc1ncn([C@H]2C[C@H](O)[C@@H](CO)O2)c(=O)n1` [decitabine] + COc1cc(Nc2ncc(F)c(Nc3ccc4c(n3)NC(=O)C(C)(C)O4)n2)cc(OC)c1OC [Tamatinib] (first compound 0.1 µM, partner dose 0.4 µM) stands 45.9%.
The compound `Nc1nc(F)nc2c1ncn2[C@@H]1O[C@H](CO)[C@@H](O)[C@@H]1O` [fludarabine] + CCc1ccc(CCOc2ccc(CC3SC(=O)NC3=O)cc2)nc1 [pioglitazone] (first compound 0.2 µM, partner dose 2 µM) returned a cell count of 90%.
Under `Nc1ccn([C@@H]2O[C@H](CO)[C@@H](O)C2(F)F)c(=O)n1` [gemcitabine] + O=C(Nc1cccc(Cl)c1)Nc1ncc(CCNc2ncnc3ccsc23)s1 [SNS314] (first compound 0.0004 µM, partner dose 0.0008 µM) stands 93.7%.
Take `Nc1ccn([C@@H]2O[C@H](CO)[C@@H](O)C2(F)F)c(=O)n1` [gemcitabine] + CN(C)S(=O)(=O)c1ccc2c(c1)/C(=C/c1cc3c([nH]1)CCCC3)C(=O)N2 [SU6656] (first compound 0.0004 µM, partner dose 0.4 µM): the cell count worked out at 94.8%.
In turn, `Nc1ncn([C@H]2C[C@H](O)[C@@H](CO)O2)c(=O)n1` [decitabine] + COc1cc(N2CCC(N3CCN(C)CC3)CC2)ccc1Nc1ncc(Cl)c(Nc2ccccc2S(=O)(=O)C(C)C)n1 [NVP-TAE684] (first compound 0.1 µM, partner dose 0.08 µM) returned a cell count of 88.7%.
The same measure for `CC(=O)O[C@@]12CO[C@@H]1C[C@H](O)[C@@]1(C)C(=O)[C@H](O)C3=C(C)[C@@H](OC(=O)[C@H](O)[C@@H](NC(=O)OC(C)(C)C)c4ccccc4)C[C@@](O)([C@@H](OC(=O)c4ccccc4)[C@H]21)C3(C)C` [Docetaxel] + CCCCCCCCCCCC1=C(O)C(=O)C=C(O)C1=O [Embelin] (first compound 0.0001 µM, partner dose 1.2 µM): 51.2%; for `CC(=O)c1c(C)c2cnc(Nc3ccc(N4CCNCC4)cn3)nc2n(C2CCCC2)c1=O` [palbociclib] + O=C(Nc1cccc(Cl)c1)Nc1ncc(CCNc2ncnc3ccsc23)s1 [SNS314] (first compound 0.04 µM, partner dose 0.0008 µM): 73.4%.
Under `CC(=O)O[C@@]12CO[C@@H]1C[C@H](O)[C@@]1(C)C(=O)[C@H](O)C3=C(C)[C@@H](OC(=O)[C@H](O)[C@@H](NC(=O)OC(C)(C)C)c4ccccc4)C[C@@](O)([C@@H](OC(=O)c4ccccc4)[C@H]21)C3(C)C` [Docetaxel] + N#Cc1c(O)c2c(-c3ccc(-c4ccccc4O)cc3)csc2[nH]c1=O [A769662] (first compound 0.0001 µM, partner dose 2 µM) stands 45.4%; under `Nc1ccn([C@@H]2O[C@H](CO)[C@@H](O)C2(F)F)c(=O)n1` [gemcitabine] + CC(C)CCN1c2nc(Nc3cc(F)c(O)c(F)c3)ncc2N(C)C(=O)C1C [BID1870] (first compound 0.0004 µM, partner dose 0.2 µM), 96.3%; under `Nc1nc(F)nc2c1ncn2[C@@H]1O[C@H](CO)[C@@H](O)[C@@H]1O` [fludarabine] + N#Cc1c(O)c2c(-c3ccc(-c4ccccc4O)cc3)csc2[nH]c1=O [A769662] (first compound 0.2 µM, partner dose 2 µM), 79.6%.
Compound `Nc1ccn([C@@H]2O[C@H](CO)[C@@H](O)C2(F)F)c(=O)n1` [gemcitabine] + Cc1cc([N+](=O)[O-])ccc1NS(=O)(=O)c1cc(Cl)ccc1Cl [FH535] (first compound 0.0004 µM, partner dose 1 µM) came in with a cell count of 89.3%.
The same measure for `Nc1ccn([C@@H]2O[C@H](CO)[C@@H](O)C2(F)F)c(=O)n1` [gemcitabine] + Cc1cc(N2CCOCC2)cc2[nH]c(-c3c(NC[C@@H](O)c4cccc(Cl)c4)cc[nH]c3=O)nc12 [BMS536924] (first compound 0.0004 µM, partner dose 0.2 µM): 71.9%; for `Nc1nc(F)nc2c1ncn2[C@@H]1O[C@H](CO)[C@@H](O)[C@@H]1O` [fludarabine] + CO[C@@H]1[C@H](N(C)C(=O)c2ccccc2)C[C@H]2O[C@]1(C)n1c3ccccc3c3c4c(c5c6ccccc6n2c5c31)C(=O)NC4 [Midostaurin] (first compound 0.2 µM, partner dose 0.08 µM): 44.2%; for `Nc1ncn([C@H]2C[C@H](O)[C@@H](CO)O2)c(=O)n1` [decitabine] + O=C1NC(=O)/C(=C/c2ccc(-c3ccc(F)cc3O)o2)S1 [AS252424] (first compound 0.1 µM, partner dose 1 µM): 111%.
Take `Nc1ncn([C@H]2C[C@H](O)[C@@H](CO)O2)c(=O)n1` [decitabine] + CC(C)(C)c1cnc(CSc2cnc(NC(=O)C3CCNCC3)s2)o1 [SNS-032] (first compound 0.1 µM, partner dose 0.01 µM): the cell count was 61.5%.
On to `Nc1ccn([C@@H]2O[C@H](CO)[C@@H](O)C2(F)F)c(=O)n1` [gemcitabine] + COc1ccc2c(c1)CCC1C2CCC2(C)C(NCCCCCCN3C(=O)C=CC3=O)CCC12 [U73122] (first compound 0.0004 µM, partner dose 0.4 µM), for which the cell count worked out at 98.6%.
The same measure for `Nc1ncn([C@H]2C[C@H](O)[C@@H](CO)O2)c(=O)n1` [decitabine] + COc1cc2c(Oc3ccc4[nH]c(C)cc4c3F)ncnc2cc1OCCCN1CCCC1 [cediranib] (first compound 0.1 µM, partner dose 0.4 µM): 101%; for `Nc1ncn([C@H]2C[C@H](O)[C@@H](CO)O2)c(=O)n1` [decitabine] + CN(C)S(=O)(=O)c1ccc2c(c1)/C(=C/c1cc3c([nH]1)CCCC3)C(=O)N2 [SU6656] (first compound 0.1 µM, partner dose 0.4 µM): 99.8%; for `CC(=O)O[C@@]12CO[C@@H]1C[C@H](O)[C@@]1(C)C(=O)[C@H](O)C3=C(C)[C@@H](OC(=O)[C@H](O)[C@@H](NC(=O)OC(C)(C)C)c4ccccc4)C[C@@](O)([C@@H](OC(=O)c4ccccc4)[C@H]21)C3(C)C` [Docetaxel] + COc1cc(N2CCC(N3CCN(C)CC3)CC2)ccc1Nc1ncc(Cl)c(Nc2ccccc2S(=O)(=O)C(C)C)n1 [NVP-TAE684] (first compound 0.0001 µM, partner dose 0.08 µM): 39.5%.
As to `Nc1nc(F)nc2c1ncn2[C@@H]1O[C@H](CO)[C@@H](O)[C@@H]1O` [fludarabine] + O=C(Nc1cccc(Cl)c1)Nc1ncc(CCNc2ncnc3ccsc23)s1 [SNS314] (first compound 0.2 µM, partner dose 0.0008 µM), the cell count is 83.7%.
As for `CC(=O)O[C@@]12CO[C@@H]1C[C@H](O)[C@@]1(C)C(=O)[C@H](O)C3=C(C)[C@@H](OC(=O)[C@H](O)[C@@H](NC(=O)OC(C)(C)C)c4ccccc4)C[C@@](O)([C@@H](OC(=O)c4ccccc4)[C@H]21)C3(C)C` [Docetaxel] + CC(C)CCN1c2nc(Nc3cc(F)c(O)c(F)c3)ncc2N(C)C(=O)C1C [BID1870] (first compound 0.0001 µM, partner dose 0.2 µM), the cell count is 56.4%.

(Values after the supplement of paper PMC4604168 (melanoma cell lines).)
